{"source": "PubChem BioAssay AID1460", "about": "(National Center for Advancing Translational Sciences (NCATS), 2008)", "note": "Several values for one entry are separate records, joined by “and”; a condition that tells them apart may be missing. Equal entries are not always repeated. In all, about 270,000 compounds went through this assay and about 5,800 (2.1%) were called active. Inconclusive means that the source gave no clear call. Such entries were picked first, then a sample of the others. Calls come from the whole dose curve; as a rule, active = well fitted inhibition curve with a large enough effect; inconclusive = small, poorly fitted or top-dose-only effect; inactive = flat fitted curve, though single readings scatter. Potencies beside an inconclusive call are fits to weak or partial responses and may not hold up. % is set by controls: 0 for no effect and ±100 for the full control effect; potency is the fitted concentration of half-maximal effect; tags give direction and shape of the fitted curve.", "data": [{"molecular_target": "Microtubule-associated protein tau (Homo sapiens) (UniProt P10636)", "sequence (P10636 whole entry, looked up, the tested form may be a part)": "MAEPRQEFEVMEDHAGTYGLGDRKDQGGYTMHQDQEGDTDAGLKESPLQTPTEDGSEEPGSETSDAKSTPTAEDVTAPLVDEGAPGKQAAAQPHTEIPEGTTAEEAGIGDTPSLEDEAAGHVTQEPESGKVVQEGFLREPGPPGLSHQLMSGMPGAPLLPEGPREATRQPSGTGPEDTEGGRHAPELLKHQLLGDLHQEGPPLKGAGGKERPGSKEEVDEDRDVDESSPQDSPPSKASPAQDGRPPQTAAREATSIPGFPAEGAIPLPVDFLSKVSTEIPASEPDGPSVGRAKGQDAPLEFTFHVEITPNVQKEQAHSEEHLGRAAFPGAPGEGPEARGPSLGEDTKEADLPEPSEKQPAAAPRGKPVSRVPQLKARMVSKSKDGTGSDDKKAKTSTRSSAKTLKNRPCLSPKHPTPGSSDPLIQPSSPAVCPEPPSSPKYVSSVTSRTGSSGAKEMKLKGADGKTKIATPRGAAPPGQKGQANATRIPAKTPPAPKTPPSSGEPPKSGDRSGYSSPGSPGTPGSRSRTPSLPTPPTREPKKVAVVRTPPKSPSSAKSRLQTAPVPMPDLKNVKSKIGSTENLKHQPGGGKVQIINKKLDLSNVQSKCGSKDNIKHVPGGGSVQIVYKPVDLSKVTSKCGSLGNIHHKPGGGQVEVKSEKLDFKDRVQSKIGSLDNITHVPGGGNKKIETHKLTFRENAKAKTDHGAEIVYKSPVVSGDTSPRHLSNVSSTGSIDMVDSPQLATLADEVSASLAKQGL", "experiment": "qHTS for Inhibitors of Tau Fibril Formation, Thioflavin T Binding; note: nearly all actives have a fitted effect of over 55% in size", "conditions": "recombinant tau K18 P301L (four-repeat tau fragment), heparin-induced fibrillization, ThT fluorescence; series mostly up to 57.4 µM; activity, negative = inhibition: at the top concentration", "how_it_was_run": "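Recombinant human tau K18 fragment […] carrying P301L, 15 uM unlabeled plus 0.24 uM Alexa 594-labeled, was fibrillized with 20 uM heparin in 100 mM sodium acetate pH 7 for 6 hr at 37 C; 30 uM ThT fluorescence read after 1 hr.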", "values": [{"smiles": "O=c1c2ccccc2nc(/C=C/c2ccccc2O)n1-c1ccc(Br)cc1", "activity, negative = inhibition": "inactive: 14.8%"}, {"smiles": "C/C(=N\\N1CCCCC1c1cccnc1)c1c(O)n(C2CCCCC2)c(=S)[nH]c1=O", "note": "(centres undefined)", "activity, negative = inhibition": "inactive: -12.1%"}, {"smiles": "COc1cc(/C=C(/C)[N+](=O)[O-])ccc1OCc1ccccc1Cl", "Potency": "inconclusive: 35.5 µM [inhibitor, single point]"}, {"smiles": "COc1ccc2[nH]cc(CCN=C(NC(=O)c3ccccc3OC)Nc3nc(C)cc(C)n3)c2c1", "Potency": "inconclusive: 0.282 µM [inhibitor, full curve]"}, {"smiles": "O=C1C=CC(=O)c2c(O)cccc21", "Potency": "active: 11.2 µM"}, {"smiles": "CN(C(=O)Cc1ccc(Cl)c(Cl)c1)[C@H](CN1CCCC1)c1ccccc1", "Potency": "inactive"}, {"smiles": "COC[C@H]1OC(=O)c2coc3c2[C@@]1(C)C1=C(C3=O)[C@@H]2CCC(=O)[C@@]2(C)C[C@H]1OC(C)=O", "Potency": "active: 14.1 µM"}, {"smiles": "CC(=O)CC(=O)C1C(=O)N(C)C(=O)N(C)C1=O", "Potency": "inconclusive: 8.91 µM [inhibitor, partial curve]"}, {"smiles": "Cc1nn(-c2ccccc2)c2c1C(c1ccc(F)cc1F)C(C#N)=C(N)O2", "note": "(centres undefined)", "Potency": "inconclusive: 31.6 µM [inhibitor, single point]"}, {"smiles": "COc1ccc(NC2CC(=O)N(C(C)C)C2=O)cc1", "note": "(centres undefined)", "Potency": "inconclusive: 31.6 µM [inhibitor, single point]"}, {"smiles": "CCCCSc1nc2c(cnn2-c2ccccc2)c(=O)n1N", "Potency": "inconclusive: 25.1 µM [inhibitor, single point]"}, {"smiles": "Cc1ccc(-n2nc(C)c3c2NC(=O)CSC3c2ccc(O)cc2)cc1Cl", "note": "(centres undefined)", "Potency": "inconclusive: 15.8 µM [inhibitor, partial curve]"}, {"smiles": "CC/C(=N\\Nc1ccccc1)c1c(O)n(-c2ccc(OC)cc2)c(=O)[nH]c1=O", "Potency": "inconclusive: 12.6 µM [inhibitor, partial curve]"}, {"smiles": "COc1ccc(CCn2c(O)c(C=Nc3ccccc3F)c(=O)[nH]c2=O)cc1OC", "Potency": "inconclusive: 0.1 µM [inhibitor, full curve, poor fit]"}, {"smiles": "Cc1cc(C(=O)O)sc1C(N)C(=O)O", "note": "(centres undefined)", "Potency": "inconclusive: 39.8 µM [inhibitor, single point]"}, {"smiles": "CCOC(=O)c1ccc(N2C(=O)CC(N3CC=C(c4ccc(F)cc4)CC3)C2=O)cc1", "note": "(centres undefined)", "Potency": "inconclusive: 6.31 µM [inhibitor, partial curve]"}, {"smiles": "N#Cc1cccc(NC(=O)c2sc3nc4c(cc3c2N)N2CCC4CC2)c1", "Potency": "inconclusive: 28.2 µM [inhibitor, partial curve]"}, {"smiles": "Cc1oc(-c2ccccc2Cl)nc1CN1C(=O)CN=C(c2ccccc2)c2cc(Cl)ccc21", "Potency": "inconclusive: 25.1 µM [inhibitor, single point]"}, {"smiles": "CCOC(=O)CSCCOc1ccc(C=C2C(=O)NC(=O)NC2=O)cc1OC", "Potency": "inconclusive: 6.31 µM [inhibitor, partial curve]"}, {"smiles": "CC1(C)[C@@H](O)C[C@H]2[C@](C)(O)[C@@H]3CC[C@H]4[C@@H](O)[C@@]3(C[C@@H](O)[C@@]21O)C[C@@]4(C)O", "Potency": "inactive"}, {"smiles": "CN1C(=O)C(=Cc2ccc(N3CCCCCC3)o2)C(=O)N(C)C1=S", "Potency": "active: 12.6 µM"}, {"smiles": "COc1cc2c(cc1OC)-c1c(O)c(OC)cc3c1[C@H](C2)N(C)CC3", "Potency": "active: 5.01 µM"}, {"smiles": "O=C1CC(N2CC=C(c3ccccc3)CC2)C(=O)N1c1ccc(F)cc1", "note": "(centres undefined)", "Potency": "inconclusive: 17.8 µM [inhibitor, partial curve]"}, {"smiles": "COc1ccc(NC(=O)CCc2nc(C3=CCN(Cc4cccc(Cl)c4)CC3)no2)cc1OC", "Potency": "inconclusive: 3.16 µM [inhibitor, single point]"}, {"smiles": "COc1ccc2nc(/N=C/c3c(O)n(-c4cccc(Cl)c4)c(=O)[nH]c3=O)sc2c1", "Potency": "inconclusive: 15.8 µM [inhibitor, partial curve]"}, {"smiles": "Cc1ccc(N2C(=O)NC(=O)/C(=C/c3cnn(-c4ccc(C)cc4)c3)C2=O)cc1", "Potency": "inconclusive: 4.47 µM [inhibitor, full curve]"}, {"smiles": "O=c1[nH]c(O)c(N=Nc2cc([N+](=O)[O-])ccc2O)c(=O)[nH]1", "Potency": "active: 14.1 µM"}, {"smiles": "O=C(O)c1ccccc1S", "Potency": "inconclusive: 22.4 µM [inhibitor, partial curve]"}, {"smiles": "COc1cc2c(cc1OC)-c1c(OC)c(OC)c(C=O)c3c1[C@H](C2)N(C)CC3", "Potency": "active: 22.4 µM"}, {"smiles": "Clc1ccc2c(c1)C(OC1CN3CCC1CC3)c1ccccc1CS2", "note": "(centres undefined)", "Potency": "inconclusive: 39.8 µM [inhibitor, single point]"}, {"smiles": "CCCCCC1C(=O)O[C@H](C)[C@@H](NC(=O)c2cccc(NC=O)c2O)C(=O)OC(C)C1OC(=O)CC(C)C", "note": "(some centres undefined)", "activity, negative = inhibition": "inactive: -8.99%"}, {"smiles": "Cn1cccc1/C=C1/C(=O)NC(=O)N(Cc2ccccc2)C1=O", "Potency": "inconclusive: 14.1 µM [inhibitor, partial curve]"}, {"smiles": "C=CCn1c(-c2ccc([N+](=O)[O-])cc2)n[nH]c1=S", "Potency": "inconclusive: 12.6 µM [inhibitor, partial curve]"}, {"smiles": "CCCCCCNC(=O)N[C@H](Cc1ccc(O)cc1)C(=O)NCCC[C@H]1CN2C(=NC[C@H]2CCC)N1CC1CCC1", "activity, negative = inhibition": "inactive: -4.64%"}, {"smiles": "COc1ccc(CCNCc2ccc3c(c2)n(C)c(=O)n3C)cc1", "activity, negative = inhibition": "inactive: -6.73%"}, {"smiles": "c1cc2c(cc1[C@H]1OC[C@@H]3[C@H]1CO[C@H]3c1ccc3c(c1)OCO3)OCO2", "Potency": "inconclusive: 10 µM [inhibitor, partial curve]"}, {"smiles": "Cc1ccccc1C(O)(Cc1ccccc1)C1CN2CCC1CC2", "note": "(centres undefined)", "Potency": "inconclusive: 17.8 µM [inhibitor, partial curve]"}, {"smiles": "Cc1ccc(S(=O)(=O)N2CCCCC2)cc1NC(=O)CSc1ncnc2ccccc12", "Potency": "inconclusive: 31.6 µM [inhibitor, single point]"}, {"smiles": "C/C(=N\\NP(=S)(c1ccccc1)c1ccccc1)c1ccc(O)cc1O", "Potency": "inconclusive: 39.8 µM [inhibitor, single point]"}, {"smiles": "O=C(COc1ccc2ccccc2c1)N1CCN(Cc2c[nH]c3ccccc23)CC1", "activity, negative = inhibition": "inactive: -12.8%"}, {"smiles": "C/C1=C\\[C@@H](C)C/C=C/[C@H]2[C@@H]3O[C@]3(C)[C@@H](C)[C@H]3[C@H](Cc4c[nH]c5ccccc45)NC(=O)[C@]32C(=O)/C=C/C(=O)[C@@H]1O", "Potency": "active: 0.891 µM"}, {"smiles": "CCCCn1c(O)c(C(CC)=NCc2cccnc2)c(=O)[nH]c1=O", "Potency": "inconclusive: 25.1 µM [inhibitor, partial curve]"}, {"smiles": "COc1ccccc1NC(=O)N1CCN(c2nnc(C)c3c(C)n(-c4ccc(Cl)cc4)nc23)CC1", "Potency": "inconclusive: 39.8 µM [inhibitor, single point]"}, {"smiles": "CCC(C)n1c(O)c(/C=N/Nc2nc3c(c(=O)n(C)c(=O)n3C)n2C)c(=O)[nH]c1=S", "note": "(centres undefined)", "Potency": "active: 11.2 µM"}, {"smiles": "COc1ccc(C2=C(C(C)=O)Sc3nnc(-c4ccc(C)cc4)n3N2C(C)=O)cc1OC", "Potency": "inconclusive: 17.8 µM [inhibitor, partial curve]"}, {"smiles": "Cc1ccc2c(CN3CC=C(c4ccccc4)CC3)cc(=O)oc2c1C", "Potency": "inconclusive: 31.6 µM [inhibitor, partial curve]"}, {"smiles": "CCc1c(C)nc(N)nc1N1N=C1SC(C(C)=O)C(C)=O", "Potency": "active: 17.8 µM"}, {"smiles": "O=C1CC2OCC=C3CN4CC[C@]56c7ccccc7N1[C@H]5[C@H]2C3C[C@H]46", "note": "(some centres undefined)", "activity, negative = inhibition": "inactive: -8.27%"}, {"smiles": "Cc1cc2c(cc1C)-n1c(-c3ccccc3)c3c(=O)n(C)c(=O)n(C)c3c1C(c1ccco1)N2", "note": "(centres undefined)", "Potency": "inconclusive: 14.1 µM [inhibitor, partial curve]"}, {"smiles": "O=C(O)COc1ccccc1/C=C1\\C(=O)NC(=O)N(CCC2=CCCCC2)C1=O", "Potency": "inconclusive: 39.8 µM [inhibitor, single point]"}, {"smiles": "O=C(Nc1ccc2nc(SCC(=O)N3CCCc4ccccc43)sc2c1)c1ccccc1F", "Potency": "inconclusive: 0.398 µM [inhibitor, partial curve]"}, {"smiles": "CCc1ccc(N2C(=O)NC(=O)/C(=C/c3ccsc3)C2=O)cc1", "Potency": "inconclusive: 1 µM [inhibitor, full curve, poor fit]"}, {"smiles": "CC1=C2C(=CO[C@H](C)[C@H]2C)C(=O)C(C(=O)O)=C1O", "Potency": "inconclusive: 31.6 µM [inhibitor, partial curve, poor fit]"}, {"smiles": "Oc1ccc(/C=N/NP(=S)(c2ccccc2)c2ccccc2)c(O)c1O", "Potency": "active: 25.1 µM"}, {"smiles": "Cc1ccccc1N1C(=O)CC(=O)N(c2ccccc2C)C1=O", "Potency": "inconclusive: 5.01 µM [inhibitor, partial curve]"}, {"smiles": "CC1Cc2cc3c(cc2C(c2ccc(N)cc2)=NN1)OCO3", "note": "(centres undefined)", "Potency": "inconclusive: 20 µM [inhibitor, partial curve]"}, {"smiles": "O=[N+]([O-])c1ccc(-c2ccc(C=Nc3cccc4ccccc34)o2)cc1", "Potency": "active: 15.8 µM"}, {"smiles": "CCCCNC(=O)c1c(N)n(CCCOC)c2nc3ccccc3nc12", "Potency": "inconclusive: 28.2 µM [inhibitor, partial curve]"}, {"smiles": "COc1ccc(OC)c(C(c2c(O)c3ccccc3oc2=O)c2c(C)n(C)n(-c3ccccc3)c2=O)c1", "note": "(centres undefined)", "Potency": "inconclusive: 44.7 µM [inhibitor, single point]"}, {"smiles": "CN1CCC(c2c[nH]c3ccc(O)cc23)CC1", "Potency": "inactive"}, {"smiles": "CC(C)[C@@]1(NC(=O)[C@@H]2C[C@@H]3c4cccc5[nH]cc(c45)C[C@H]3N(C)C2)O[C@@]2(O)[C@@H]3CCCN3C(=O)[C@H](Cc3ccccc3)N2C1=O", "Potency": "inconclusive: 39.8 µM [inhibitor, single point] and inconclusive: 28.2 µM [inhibitor, single point]"}, {"smiles": "Cc1ccc(-n2c(O)c(/C=C3/C(c4ccccc4)=Nc4ccccc43)c(=O)[nH]c2=O)cc1", "Potency": "active: 12.6 µM"}, {"smiles": "Cn1c(=O)cc(OCC(=O)N2CCC3(CC2)OCCO3)c2ccccc21", "activity, negative = inhibition": "inactive: -7.51%"}, {"smiles": "O=c1[nH]c(=S)[nH]c(O)c1CN1CCCCC1", "Potency": "inconclusive: 31.6 µM [inhibitor, single point]"}]}]}
